Experimental data taken from PubChem BioAssay AID624296 (National Center for Advancing Translational Sciences (NCATS), 2012).
About 9,900 (2.8%) of roughly 350,000 compounds were called active. The inconclusive results got no clear call from the source; some entries with a clear call stand among them for comparison. Calls come from the whole dose curve; as a rule, active = well fitted activation curve with a large enough effect; inconclusive = small, poorly fitted or top-dose-only effect; inactive = no such curve, though single readings can be large or run the other way. No potency is given beside an inconclusive call; the fits are too rough.

Assay: A quantitative high throughput screen for small molecules that induce DNA re-replication in MCF 10a normal breast cells. For activity, positive = re-replication: % of control where 0% means no effect. Note: nearly all actives have a fitted effect of over 50% in size.
Conditions: MCF 10A DNA re-replication, Hoechst nuclear intensity, 48 h; activity, positive = re-replication: at 46.1 µM (top of the series)
Potency is the fitted concentration of half-maximal effect; tags give direction and shape of the fitted curve.

| SMILES | Potency | activity, positive = re-replication |
| --- | --- | --- |
| Cn1c(-c2ccc(Br)cc2)cnc1NCc1cccnc1 | inconclusive [activator, single point] |  |
| COc1ccc(CCNC(=O)C(C)Sc2ccc(C)cc2)cc1OC (stereo unspecified) | inconclusive [activator, partial curve, poor fit] |  |
| O=C(CSc1ncn(-c2ccccc2)n1)Nc1nc2ccccc2s1 | inconclusive [activator, single point] |  |
| CC(C)(C)c1nnc(NC(=O)Cc2ccc(Br)cc2)s1 | inconclusive [activator, partial curve, poor fit] |  |
| COc1ccc(NC(C)=O)cc1CNC(=O)CN1CCOCC1 | inconclusive [activator, single point] |  |
| Cc1cccc(OCCn2c(NC(=O)c3ccco3)nc3ccccc32)c1 |  | inactive: 15.2% |
| CCOC(=O)c1cnn(-c2ccccc2)c1-c1ccccc1 | inconclusive [activator, single point] |  |
| O=C(CSc1ccc2c(c1)OCCO2)N1CCN(c2ccccc2O)CC1 |  | inactive: 8.67% |
| COc1ccc(C2Nc3ccccc3NC3=C2C(=O)CC(C)(C)C3)c(OC)c1OC (stereo unspecified) |  | inactive: -3.79% |
| O=C(NC1CCCC1)C(c1ccsc1)N(C(=O)Cc1cccs1)c1ccccc1 (stereo unspecified) | inconclusive [activator, single point] |  |
| CC1=C(C(=O)OC2CCCCC2)C(c2ccco2)C2=C(CC(C)(C)CC2=O)N1 (stereo unspecified) | inconclusive [activator, partial curve] |  |
| OCCCn1c(CCNc2nc(-c3ccc(F)cc3)cs2)nc2cc(C(F)(F)F)ccc21 | inconclusive [activator, single point] |  |
| C=CC[C@H](CC(=O)N(CCO)Cc1ccccc1)C(=O)N[C@H](COC(=O)[C@@H](CC=C)CC(=O)OC(C)(C)C)c1ccccc1 |  | inactive: 4.99% |
| NCCCC[C@H]1CNC(=O)C(=O)N1CCc1cc(C(F)(F)F)cc(C(F)(F)F)c1 |  | inactive: 6.7% |
| CCc1cccc(C)c1NC(=S)NCCc1c(C)[nH]c2ccc(C)cc12 | active: 10.3 µM |  |
| O=C(Cn1nnc2c(cnn2-c2ccccc2)c1=O)NCc1cccs1 | inconclusive [activator, single point] |  |
| Clc1ccccc1Nc1nc(-c2ccncc2)nc2ccccc12 | inconclusive [activator, partial curve, poor fit] |  |
| COc1ccc(NC(=O)CCCCCn2nnc3ccccc3c2=O)cc1 | inconclusive [activator, full curve, poor fit] |  |
| CN(C)c1ccc(CN2CCCCCC2)cc1 |  | inactive: 2.22% |
| CC[n+]1c(/C=C/Nc2ccccc2)oc2ccccc21 | inconclusive [activator, single point] |  |
| Cc1cccc(Cn2cnc3ccccc32)c1 |  | inactive: 2.32% |
| OCCNCc1cccc2ccccc12 |  | inactive: 6.17% |
| CC1CCCN(CC(=O)Nc2ccc(S(=O)(=O)NC3CCCCC3)cc2)C1 (stereo unspecified) | active: 16.4 µM |  |
| Cc1cc(O)c(C(=O)/C=C/c2ccc(Cl)cc2)c(=O)o1 | inconclusive [activator, single point] |  |

| SMILES | Potency | activity, positive = re-replication |
| --- | --- | --- |
| O=C(CN1C(=O)c2ccccc2C1=O)Nc1ccccc1C(=O)NC1CCCCCC1 |  | inconclusive: 61.7% [activator] |
| Cc1cccc(Cc2cnc(NC(=O)c3ccc(C)o3)s2)c1 | active: 2.59 µM |  |
| O=C(N/N=C/c1cc([N+](=O)[O-])ccc1Cl)c1cnccn1 | inconclusive [activator, full curve] |  |
| COc1ccc(C(=O)CC2(C(=O)O)CCCCC2)cc1 |  | inactive: 0.167% |
| COc1cc(-c2nnc(COC(=O)C3c4ccccc4Oc4ccccc43)o2)cc(OC)c1OC |  | inactive: 8.88% |
| CN1CCN(S(=O)(=O)c2ccc(Cc3ccc(S(=O)(=O)N4CCN(C)CC4)cc3)cc2)CC1 | active: 20.6 µM |  |
| Cc1cc(/C=C2\SC(=S)N(C)C2=O)c(C)n1-c1ccc(O)cc1 | inconclusive [activator, single point] |  |
| CC(=O)c1cccc(NS(=O)(=O)c2cc(-c3cnc(C4CC4)o3)ccc2C)c1 | inconclusive [activator, single point] |  |
| COc1cccc(C(=O)Nc2nc(-c3ccc4c(c3)OCO4)cs2)c1 | active: 16.4 µM |  |
| O=C(CCc1ccccc1)N1N=C(c2ccncc2)CC1(O)C(F)(F)F (stereo unspecified) |  | inactive: -10.6% |
| CCCCOc1ccc(C2=CSC3=NCCN23)cc1[N+](=O)[O-] |  | inactive: 12.2% |
| Cc1ccc(C(=O)Nc2cccnc2)cc1Cl | inconclusive [activator, single point] |  |
| C=CCn1c(SCn2nnc3ccccc3c2=O)nnc1-c1ccc(F)cc1 |  | inactive: 9.07% |
| COc1ccc(NS(=O)(=O)c2cc(NC(=O)c3cccnc3Cl)ccc2N2CCCC2)cc1 | inconclusive [activator, partial curve, poor fit] |  |
| CC(Oc1ccc(F)cc1)C(=O)Nc1cc(S(=O)(=O)N2CCCCC2)ccc1N1CCN(C)CC1 (stereo unspecified) |  | inactive: 13.5% |
| N=C1/C(=C/c2cccn2CCOc2ccccc2)C(=O)N=C2SC=C(c3ccccc3)N12 | active: 1.3 µM |  |
| N#CC1=C(S)N=C(N)C(c2nc(-c3ccccc3)cs2)C12CCCC2 (stereo unspecified) | inconclusive [activator, partial curve, poor fit] |  |
| COc1ccc(NC(=O)CSCC(=O)N2CCN(C(=O)c3ccco3)CC2)cc1 |  | inactive: -3.22% |
| Cc1ccc(-c2c(C(=O)N/N=C/c3cccs3)nnn2-c2nonc2N)cc1 | inconclusive [activator, single point] |  |
| CC(=NNC(=S)Nc1ccc(C)cc1)c1ccccn1 | inconclusive [activator, single point] |  |
| C=CC[C@@H](CC(=O)OC(C)(C)C)C(=O)OC[C@H]1CCCN1C(=O)[C@@H](CC=C)CC(=O)N(CCO)Cc1ccccc1 | inconclusive [activator, full curve, poor fit] |  |
| O=C(CN1CCCC1)Nc1nc(-c2ccc3c(c2)CCN3C(=O)c2ccccc2F)cs1 | inconclusive [activator, single point] |  |
| COc1ccc2[nH]cc(/C=C/C(=O)c3ccccc3)c2c1 | inconclusive [activator, single point] |  |
| COc1cccc(Oc2cnc(N)nc2-c2ccc(OC)cc2O)c1 | active: 6.51 µM |  |

| SMILES | Potency | activity, positive = re-replication |
| --- | --- | --- |
| N#Cc1c(-c2ccccc2Cl)cc(-c2ccccc2)nc1Br | inconclusive [activator, partial curve, poor fit] |  |
| CN(C)S(=O)(=O)c1cccc(N=C2SCCN2Cc2ccccc2)c1 |  | inactive: 3.53% |
| O=C(Nc1nccs1)c1ccc(CSc2nnnn2-c2ccccc2)cc1 |  | inactive: -2.52% |
| Cc1ccc2c(c1)c(CC(=O)Nc1ccc(F)cc1)c(C(=O)O)n2C | inconclusive [activator, single point] |  |
| CCCC(=O)NC(=S)Nc1ccc(N2CCOCC2)c(Cl)c1 |  | inactive: 2.17% |
| CC(C)c1cccc(-c2ccc3c(c2)S(=O)(=O)c2cccc(C(=O)O)c2C3=O)c1 |  | inactive: -11% |
| Cc1ccc(C(=O)Nc2cccc([N+](=O)[O-])c2)cc1S(=O)(=O)Nc1ccc(C(=O)O)cc1 | inconclusive [activator, partial curve, poor fit] |  |
| CCN(CC(=O)Nc1ccccc1C(F)(F)F)C(=O)Cn1c(=O)cnc2ccccc21 |  | inactive: -16.9% |
| CC1(C)C(=O)OC(c2c3ccccc3cc3ccccc23)C(C)(C)C1=O (stereo unspecified) | inconclusive [activator, partial curve, poor fit] |  |
| Cn1c(=O)c(=O)n(C)c2cc(N3CCOCC3)c(NS(=O)(=O)c3ccc(Br)cc3)cc21 |  | inactive: -1.11% |
| O=C(NC(Cc1ccccc1)c1nc2ccccc2[nH]1)c1cccc([N+](=O)[O-])c1 (stereo unspecified) | inconclusive [activator, single point] |  |
| CCCOc1ccc(-c2c(C(=O)N/N=C/c3ccc(C)cc3)nnn2-c2nonc2N)cc1 | inconclusive [activator, partial curve, poor fit] |  |
| O=C(c1ccco1)N(CCCN1CCOCC1)c1nc(-c2ccc(Cl)cc2)cs1 | active: 10.3 µM |  |
| CCOC(=O)CC(NS(=O)(=O)Cc1ccccc1)c1ccc(C)cc1 (stereo unspecified) |  | inactive: 0.0308% |
| CCN(CCCNC(=O)C1CCN(S(=O)(=O)CC)CC1)c1ccccc1 | active: 2.91 µM |  |
| CCc1ccc(OC)c(S(=O)(=O)Nc2ccccc2C)c1 | inconclusive [activator, partial curve] |  |
| COc1ccc(CN(C)CC(O)COC(c2ccccc2)c2ccccc2)c(OC)c1OC (stereo unspecified) | inconclusive [activator, partial curve, poor fit] |  |
| CCc1ccc2c(COn3nnc4ccc(S(=O)(=O)N(C)C)cc43)cc(=O)oc2c1 | inconclusive [activator, single point] |  |
| COCCn1c(SC(C)C(=O)Nc2ccc(Cl)cn2)nnc1-c1ccncc1 (stereo unspecified) |  | inactive: 2.57% |
| CC(=O)c1ccccc1NC(=O)COC(=O)c1c(C)nn(-c2ccccc2)c1C | inconclusive [activator, partial curve, poor fit] |  |
| COc1ccc(Cl)cc1Nc1nc(C)nc2c1nnn2Cc1ccccc1 | inconclusive [activator, partial curve, poor fit] |  |
| COc1ccc(NC(=O)COC(=O)c2ccc(OCc3ccccc3Cl)c(OC)c2)c(OC)c1 | inconclusive [activator, full curve, poor fit] |  |
| O=C(CC12CC3CC(CC(C3)C1)C2)NC(=S)NCc1ccccc1 | inconclusive [activator, partial curve] |  |
